Laboratory results: PubChem BioAssay AID1745845 (National Center for Advancing Translational Sciences (NCATS), 2022)
“And” between values parts separate entries of the source, which are not always exact repeats. Equal entries are not always repeated. Screen size: about 360,000 compounds; about 2,600 (0.72%) were called active. The inconclusive results got no clear call from the source; some entries with a clear call stand among them for comparison. Calls follow the shape of the dose curve; as a rule, active = well fitted inhibition curve with a large enough effect; inconclusive = small, poorly fitted or top-dose-only effect; inactive = no such curve, though single readings can be large or run the other way. Potencies of inconclusive entries are doubtful fits and often do not repeat.

Test: Primary qHTS for Inhibitors of ATXN expression; also: nearly all actives have a fitted effect of over 55% in size
Settings: HEK-293 ATXN2-luciferase reporter, luminescence, 24 h; series mostly up to 57 µM
How it was run: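 ATXN2-luciferase reporter cells (luciferase flanked by upstream and downstream ATXN2 gene portions) were treated 24 h at 37 °C with compounds at up to 57 uM. SteadyGlo luminescence gave expression; GF-AFC fluorescence gave viability.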
Potency is read from the fitted curve at half-maximal effect; tags tell the direction and shape of the fitted curve.

Row | SMILES | Potency
1 | CCOC(=O)[C@]12Cc3c(cc(OC)c(OC)c3OC)[C@H]1N(C1CCCCC1)C(=O)c1ccccc12 | active: 6.31 µM
2 | Cc1ccccc1-n1nc(C)c2c1NC(=O)CSC2c1ccccc1C(F)(F)F (stereo not given) | inconclusive: 39.8 µM [inhibitor, single point]
3 | O=c1[nH]c(=O)n(Cc2ccccc2)c(O)c1C=NCCN1CCOCC1 | inactive
4 | CCOc1ccc(CN(CCCl)CCCl)cc1C(=O)OC | inconclusive: 39.8 µM [inhibitor, partial curve, poor fit]
5 | N#Cc1cn(C2OC(CO)C(O)C2O)c2ncnc(N)c12 (stereo not given) | inconclusive: 0.141 µM [inhibitor, full curve, poor fit]
6 | COc1ccc(-n2nnnc2C(c2ccnc3ccccc23)N2CCC(n3c(=O)[nH]c4ccccc43)CC2)cc1 (stereo not given) | inconclusive: 39.8 µM [inhibitor, single point]
7 | CC1=C(C(=O)Nc2ccccc2)S(=O)(=O)CCO1 | inconclusive: 37.7 µM [inhibitor, single point]
8 | COc1ccc(-n2c(-c3ccccc3Br)nc3ccccc3c2=O)cc1 | inactive
9 | c1ccc2c(c1)OCC(C1=NCCN1)O2 (stereo not given) | inactive and inconclusive: 25.1 µM [inhibitor, partial curve, poor fit]
10 | CN(C)c1ccc(-[n+]2c(-c3ccccc3)cc(-c3ccccc3)cc2-c2ccccc2)cc1 | inconclusive: 0.891 µM [inhibitor, full curve, poor fit]
11 | CC(=O)c1ccc2c(c1)C1C(Cl)C(Sc3ccccc3[N+](=O)[O-])CC1C(C(=O)O)N2 (stereo not given) | inactive
12 | CC(C)[C@]12O[C@@H]1[C@@H]1O[C@]13[C@]1(O[C@H]1C[C@@H]1C4=C(CC[C@@]13C)C(=O)OC4)[C@H]2O | active: 0.122 µM
13 | CN(C)C(=O)Oc1ccc(OCc2nc3ccccc3[nH]2)cc1 | inconclusive: 14.1 µM [inhibitor, partial curve, poor fit]
14 | COC(=O)C1=C(c2cccc(OCc3ccccc3)c2)C[C@@H]2CC[C@H]1N2C(=O)NCc1ccccc1 | inconclusive: 31.6 µM [inhibitor, partial curve, poor fit]
15 | CC12CC[C@H]3[C@@H](CCC4(O)C[C@H](O)CCC34/C=N/NC(=O)c3ccccc3O)C1(O)CCC2C1=CC(=O)OC1 (stereo not given in full) | inconclusive: 17.8 µM [inhibitor, partial curve, poor fit]
16 | COC(=O)C1=C(c2ccc3ccccc3c2)C[C@@H]2CC[C@H]1N2C(=O)N1CCCC1 | inconclusive: 15.8 µM [inhibitor, partial curve, poor fit]
17 | CCCCCC[C@H]1C(=O)O[C@H](C)[C@H](NC(=O)c2cccc(NC=O)c2O)C(=O)O[C@@H](C)[C@@H]1OC(=O)CC(C)C | inconclusive: 30.6 µM [inhibitor, single point]
18 | CCOC(=O)[C@]12Cc3cc(OC)ccc3[C@H]1N(CC(=O)OC)C(=O)c1cc(OC)ccc12 | active: 20 µM
19 | COc1cc2nc(CN3CC=C(c4ccccc4)CC3)[nH]c(=O)c2cc1OC | active: 1 µM
20 | CCCc1nc(SC)ncc1C(=O)Nc1ccc(Cl)cc1C(=O)c1ccccc1 | inactive

Row | SMILES | Potency
21 | Cc1ccccc1CN1Cc2cnnn2-c2ccccc2C1C#N (stereo not given) | inconclusive: 35.5 µM [inhibitor, single point]
22 | O=C1NC(=O)C2(CCCc3ccc(N(CCCl)CCCl)cc32)N1 (stereo not given) | inconclusive: 5.62 µM [inhibitor, partial curve]
23 | C#CCN1CCN(c2ccc(F)cc2)CC1 | inactive
24 | C=CCCC[C@@H]1OC(=O)CNC(=O)C([C@@H](C)CC)NC(=O)[C@@H]2CCCN2C(=O)C([C@@H](C)CC)OC(=O)[C@H](Cc2ccccc2)N(C)C(=O)[C@H](C(C)C)NC(=O)C1(C)C (stereo not given in full) | active: 31.6 µM
25 | COc1cc(CC(C)N)c(OC)cc1Br (stereo not given) | inconclusive: 44.7 µM [inhibitor, full curve]
26 | COc1ccc(-n2nnnc2C(c2cccs2)N2CCC(n3c(=O)[nH]c4ccccc43)CC2)cc1 (stereo not given) | inconclusive: 22.4 µM [inhibitor, partial curve]
27 | CC1CC(C)(O)CC(C(O)CC2CC(=O)NC(=O)C2)C1=O (stereo not given) | inconclusive: 0.597 µM [inhibitor, full curve]
28 | Cc1cccc(C)c1-n1nnnc1C(C1CC1)N1CCC2(CC1)C(=O)NCN2c1ccccc1 (stereo not given) | inconclusive: 31.6 µM [inhibitor, single point]
29 | O=c1c2ccccc2[se]n1-c1ccccc1 | inconclusive: 20 µM [inhibitor, single point]
30 | COc1ccccc1CCNC1CCCC(C)C1 (stereo not given) | inconclusive: 11.2 µM [inhibitor, partial curve, poor fit]
31 | C[n+]1c(-c2ccccc2)c2cc(N)ccc2c2ccc(N)cc21 | active: 7.08 µM
32 | COC(=O)C1=C(c2ccc(F)cc2OCc2ccccc2)C[C@@H]2CC[C@H]1N2C(=O)N1CCCC1 | inconclusive: 0.708 µM [inhibitor, partial curve, poor fit]
33 | CCOC(=O)C1(c2ccccc2)CCN(CCC(=O)Nc2cccc(Br)c2)CC1 | inconclusive: 17.8 µM [inhibitor, single point]
34 | O=C(NN=Cc1ccc(N(CCCl)CCCl)cc1)c1cc(=O)[nH]c(=O)[nH]1 | inconclusive: 12.6 µM [inhibitor, partial curve, poor fit]
35 | CC(=O)NC1=C(N2CC2C)C(=O)C(NC(C)=O)=C(N2CC2C)C1=O (stereo not given) | inactive
36 | CCOc1cc(CNCCc2c[nH]c3ccccc23)cc(Cl)c1OC | inconclusive: 15 µM [inhibitor, partial curve, poor fit]
37 | CN(C)CCc1c[nH]c2cccc(O)c12 | inconclusive: 50.1 µM [inhibitor, partial curve]
38 | CC(C)CCNC(=O)c1c(N)n(Cc2ccc3c(c2)OCO3)c2nc3ccccc3nc12 | inconclusive: 35.5 µM [inhibitor, single point]
39 | O=C1CN=C(c2cccs2)c2c(sc3c2CCCC3)N1 | inconclusive: 25.1 µM [inhibitor, partial curve, poor fit]
40 | Cc1cccc(N2C(=O)NC(=O)/C(=C\C=C\c3ccco3)C2=O)c1 | inconclusive: 12.6 µM [inhibitor, partial curve, poor fit]

Row | SMILES | Potency
41 | CCOC(=O)[C@]12Cc3ccccc3[C@H]1N(CCC(=O)OC)C(=O)c1cc(OC)ccc12 | inconclusive: 39.8 µM [inhibitor, single point]
42 | C[C@](O)(CS(=O)(=O)c1ccc(F)cc1)C(=O)Nc1ccc(C#N)c(C(F)(F)F)c1 | inconclusive: 12.2 µM [inhibitor, partial curve]
43 | CCCCCCC(=O)N/N=C/c1c(O)n(C2CC2)c(=S)[nH]c1=O | inconclusive: 37.7 µM [inhibitor, single point]
44 | N#Cc1ccccc1NC(=O)c1cccn(Cc2ccccc2)c1=O | inconclusive: 25.1 µM [inhibitor, partial curve, poor fit]
45 | Nc1cc(Cl)c2nonc2c1[N+](=O)[O-] | inconclusive: 39.8 µM [inhibitor, single point]
46 | COc1ccc(O)c2c(=O)c3c(OC)cc4c(c3oc12)C1C=COC1O4 (stereo not given) | inconclusive: 2.67 µM [inhibitor, full curve, poor fit]
47 | CCCCCc1nc2c(c(=O)c3ccccc3n2C)c(=O)n1C1CCCCCC1 | inconclusive: 28.2 µM [inhibitor, single point]
48 | CC(O)C1C=CC=CC(=O)OC2CC3OC4C5OC5(C)C(O)CC4(COC(=O)C(O)C(C)CCO1)C2(C)C31CO1 (stereo not given) | inconclusive: 1.19 µM [inhibitor, full curve, poor fit]
49 | CCOP(=O)(Nc1ccc2c(c1)C(=NNC(N)=S)c1ccccc1-2)OCC | inconclusive: 39.8 µM [inhibitor, single point]
50 | O=C(NCC1CCOCC1)c1cnc(Nc2ccc(Cl)cc2Cl)nc1C(F)(F)F | inconclusive: 30.6 µM [inhibitor, partial curve, poor fit]
51 | CCC(=NCC1CCCO1)c1c(O)n(-c2ccccc2)c(=O)[nH]c1=O (stereo not given) | inactive
52 | C[C@]12CCC3C(CC[C@H]4C[C@H](OC(=O)c5cccnc5)CC[C@]34C)C1CCC2=O (stereo not given in full) | inconclusive: 39.8 µM [inhibitor, single point]
53 | CC[C@]1(O)CC[C@H]2[C@@H]3CCC4=CCCC[C@@H]4[C@H]3CC[C@@]21C | inactive
54 | COc1ccc(C(c2nnnn2-c2ccc(OC)cc2)N2CCC3(CC2)C(=O)NCN3c2ccccc2)cc1 (stereo not given) | inconclusive: 39.8 µM [inhibitor, partial curve, poor fit]
55 | CCc1ccc(-n2nc(C)c3c2NC(=O)CSC3c2ccc(OC)cc2OC)cc1 (stereo not given) | inconclusive: 12.6 µM [inhibitor, partial curve, poor fit]
56 | O=c1c(C2CC(c3ccc(-c4ccc(Br)cc4)cc3)Cc3ccccc32)c(O)sc2ccccc12 (stereo not given) | inconclusive: 28.2 µM [inhibitor, partial curve]
57 | Cc1ccc(C(=O)NC2CC3CCC(C2)N3)cc1 (stereo not given) | inconclusive: 3.36 µM [inhibitor, partial curve]
58 | CCCn1c(C(=O)c2ccccc2OC)nc2ccccc21 | inactive
59 | COc1ccc(C(=O)C2CCCN(Cc3ccon3)C2)cc1OC (stereo not given) | inconclusive: 1.41 µM [inhibitor, partial curve, poor fit]
60 | COC(=O)C1=C(c2ccc(F)cc2OCc2ccccc2)C[C@@H]2CC[C@H]1N2C(=O)N1CCC(C)CC1 | inconclusive: 39.8 µM [inhibitor, partial curve, poor fit]
